± gives the standard deviation of the averaged measurements. Whole data set: some 33,000 sequences, median “E-score (dimensionless, -0.5 to 0.5)” near -0.049, cut for the highest 2% near 0.37. This is one part of the list.
tested on: T1, PmTbr T-box DNA-binding domain (GST fusion); assay: PBM E-score of 8-mer (E-score (dimensionless, -0.5 to 0.5)); Tbr is Tbrain of the sea star Patiria miniata (Pm) or the sea urchin Strongylocentrotus purpuratus (Sp); higher = stronger binding preference; most listed sequences are background and not binding sites; conditions: the construct has about 5 more residues each side
T1 sequence: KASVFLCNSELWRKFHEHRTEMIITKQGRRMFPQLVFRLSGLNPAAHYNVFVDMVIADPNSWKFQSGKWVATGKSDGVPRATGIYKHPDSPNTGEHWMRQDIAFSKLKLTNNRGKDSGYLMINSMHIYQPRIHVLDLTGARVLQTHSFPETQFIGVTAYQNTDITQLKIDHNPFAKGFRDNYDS
In short: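 Using the Universal PBM Analysis Suite, every ungapped 8-mer received an enrichment E-score averaged over duplicate arrays. Probe intensities came from double-stranded Universal Agilent oligonucleotide arrays incubated with 200 nM GST-fused Tbr T-box DNA-binding domain in PBS (pH 7.5). That protein was expressed in BL21 E. coli at 20 °C and purified by glutathione affinity chromatography.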

Sequence	PBM E-score of 8-mer
ATAGTCCC	-0.087 ± 0.0053
AACGACAC	0.303 ± 0.007
ATCCGGAA	-0.23 ± 0.0099
ACATGGAT	0.0441 ± 0.048
AACTGCGT	-0.0823 ± 0.031
CATCTTTA	-0.19 ± 0.004
AAAATTAT	-0.0438 ± 0.15
ATCTTCAT	-0.00574 ± 0.021
GATGAACA	0.0325 ± 0.0038
CTTGTTTC	-0.0329 ± 0.054
GGGGGAGA	-0.162 ± 0.037
GCTAGGCA	-0.0506 ± 0.035
ACACCTTC	0.479 ± 0.00068
ATTCGACA	0.158 ± 0.053
AGCCGCGG	-0.16 ± 0.1
AGGACGGC	-0.301 ± 0.04
AACCCTTA	-0.139 ± 0.028
TACAGCAA	-0.151 ± 0.028
CGGGTTCC	-0.20336 ± 4.2e-05
AACTGAAC	-0.182 ± 0.052
AGGAAGGA	-0.229 ± 0.01
CATAAAAC	-0.189 ± 0.027
CCAGCTGA	-0.0424 ± 0.022
ATATGACA	0.101 ± 0.082
CATGGCGA	-0.00081 ± 0.067

Sequence	PBM E-score of 8-mer
ATGTTGGG	-0.0371 ± 0.037
CTACCACA	0.0152 ± 0.068
CCGCCTGC	0.184 ± 0.037
CCACTCAA	0.0843 ± 0.014
GTCGCCAA	0.288 ± 0.038
GAATTTAA	-0.00867 ± 0.05
TCACAACA	0.384 ± 0.00069
CACCAACA	0.251 ± 0.021
AGTGGCTC	-0.186 ± 0.0041
CATCTGTA	-0.0838 ± 0.0045
AAGAACTA	-0.235 ± 0.024
AGGTACAG	-0.284 ± 0.041
TAGAAACA	-0.144 ± 0.083
GATATTGA	-0.161 ± 0.079
TCGAGTCA	-0.171 ± 0.018
CGTCTGGC	-0.0959 ± 0.043
CTACGCAG	-0.0253 ± 0.12
GCTGTAAA	0.0931 ± 0.015
ATCGCAGC	0.0756 ± 0.056
CCGGCAGC	-0.0338 ± 0.015
AGGCTCCG	-0.0551 ± 0.12
ATACACAA	-0.1389 ± 0.0012
AAACGGGG	-0.0287 ± 0.035
GACCAGAC	-0.276 ± 0.021
ACGCGGAG	-0.106 ± 0.022

Sequence	PBM E-score of 8-mer
CGGTCCCC	-0.3 ± 0.062
AGGAGATA	-0.146 ± 0.09
GGGCCGTA	-0.408 ± 0.049
CGTCTTAG	0.037 ± 0.033
ATAGCAGG	0.0422 ± 0.059
CGCTGTAG	-0.0386 ± 0.073
AACTCAGG	-0.0793 ± 0.031
CGCCTTGC	0.19 ± 0.058
AGGATTTG	-0.266 ± 0.093
TGACGTAA	-0.0667 ± 0.067
ACCCAGAA	-0.0346 ± 0.026
AAATTAGG	-0.13 ± 0.02
AGGACTAC	-0.262 ± 0.041
AATAATTC	-0.0492 ± 0.051
ATCCCTGC	-0.118 ± 0.023
ATAATGAA	-0.127 ± 0.017
AAGAGTCC	-0.179 ± 0.055
ATTTAGGA	-0.254 ± 0.056
CAGGCACC	-0.0396 ± 0.032
GCCTCTGA	0.0009 ± 0.067
CTCGTCAG	0.0897 ± 0.016
ACATGCCA	0.155 ± 0.0062
CCGCTCTC	-0.118 ± 0.027
CCGTAACG	-0.0369 ± 0.11
TCAGGAGA	-0.2573 ± 0.0014

Sequence	PBM E-score of 8-mer
GGAGAGCC	-0.27 ± 0.039
AACGTGTC	0.4102 ± 0.0015
GAGGGAAC	-0.0842 ± 0.053
GAGGTAAA	-0.149 ± 0.038
ACGGTATA	0.11 ± 0.029
ACGTTGGG	0.0498 ± 0.0094
ATCCTGCC	-0.0684 ± 0.0044
GCTTACAC	0.205 ± 0.0004
CCGCTCAC	0.0824 ± 0.049
GGAACAAC	-0.239 ± 0.011
CCGTCTGA	-0.335 ± 0.036
CCGTTTGA	-0.0869 ± 0.038
ACTTAAGA	-0.0828 ± 0.02
ACAATAGC	0.00889 ± 0.033
GTGCGGCA	0.0622 ± 0.029
AGGATGTC	-0.1 ± 0.095
GAAACATA	0.0953 ± 0.011
CTGGCGGA	-0.1756 ± 0.00055
CGATGACA	0.25 ± 0.052
CTAGCCCA	-0.0665 ± 0.076
ATCAGCTA	0.047 ± 0.078
AGTTCAGA	-0.124 ± 0.024
CGCTCACA	0.226 ± 0.05
AGGACCTG	-0.121 ± 0.067
ATAGACGA	-0.153 ± 0.086

Sequence	PBM E-score of 8-mer
CCATGAAG	-0.0515 ± 0.11
GCGCACTA	-0.094 ± 0.056
GCGCGCCC	0.116 ± 0.0012
CTACAACA	0.154 ± 0.0099
ACTATTGC	-0.139 ± 0.045
AAGTGAAA	0.154 ± 0.056
CTTAATCA	-0.0311 ± 0.061
ACGACATA	-0.0803 ± 0.0047
AACGTTGC	-0.0321 ± 0.016
AGCAGCGA	-0.0709 ± 0.041
GCAAACCC	-0.0342 ± 0.058
GTAAGGGA	0.0358 ± 0.00031
AAACGGGT	-0.107 ± 0.017
CCTATAGG	-0.0964 ± 0.022
CACCGCCC	0.11 ± 0.088
CTTGCTGA	0.0928 ± 0.0061
CGAGTGTA	0.188 ± 0.0038
CGCGAGTC	0.268 ± 0.043
ACACGGAT	0.0988 ± 0.011
CTAGGACA	0.1104 ± 0.00076
ACAATACT	0.0722 ± 0.013
AAGCTTCA	-0.0871 ± 0.073
TGCATAAA	-0.213 ± 0.022
AAGACTCT	-0.262 ± 0.0039
GGTTGTCA	0.342 ± 0.0085

Sequence	PBM E-score of 8-mer
AGGACCTC	-0.194 ± 0.072
AGTTCCGA	-0.0912 ± 0.015
ACTTCGTC	0.129 ± 0.013
GCATTTGA	-0.186 ± 0.053
ACGGGGTA	-0.167 ± 0.036
CCGACTTC	-0.233 ± 0.043
CACGAAGC	-0.0959 ± 0.073
ACTTGCCT	0.0601 ± 0.071
GTTTCCCA	0.036 ± 0.024
GATGCGAC	0.187 ± 0.041
AAAATTCC	0.00113 ± 0.065
CGCGGCAC	0.276 ± 0.0071
GAACAGCA	0.00265 ± 0.038
ACAGTCGT	0.0487 ± 0.021
GTGGCGAA	0.274 ± 0.0057
GAAACGTA	-0.107 ± 0.019
CCGAGGAC	-0.0595 ± 0.058
ATGACAAC	0.241 ± 0.054
AAGCGACT	-0.133 ± 0.011
GCTCAACA	-0.00527 ± 0.061
ATACAAAT	-0.244 ± 0.043
TAATAGCA	0.105 ± 0.025
CGATGAAG	0.02 ± 0.026
AAGCATCG	-0.225 ± 0.035
ATCTTCCG	0.0521 ± 0.053

Sequence	PBM E-score of 8-mer
ACCGATCT	-0.0688 ± 0.066
ATTTCTTA	-0.18 ± 0.061
GCCCCCGA	-0.107 ± 0.028
ACTGTTGG	0.109 ± 0.044
AGACGAAT	0.00553 ± 0.0032
CCTTAACA	0.148 ± 0.081
AGGGGATA	-0.16 ± 0.06
CCGCAATC	-0.0639 ± 0.0093
AGAGTCTC	0.0383 ± 0.056
ATTTAGTG	0.0687 ± 0.029
AGGTGTAT	0.328 ± 0.0044
ATGATATA	-0.0568 ± 0.0053
CTACTCCC	-0.31 ± 0.027
CGTAAACG	0.0455 ± 0.046
CTTGGGAC	-0.1559 ± 0.00096
ATAGCACA	0.174 ± 0.035
ACGGTTAC	-0.0754 ± 0.028
GACCGCCC	-0.3013 ± 3.5e-05
CTACCGTA	-0.066 ± 0.0093
ACCGTTTC	-0.0847 ± 0.02
AAGTCTGT	-0.0429 ± 0.043
CGGGTTGC	0.122 ± 0.081

Reference: the supplement of paper PMC4166925
